# Experimental data: the supplement of paper PMC4967469
# A lower IC50 marks a more sensitive line; a fit beyond the top or the lowest dose is shown as a bound at that dose. AUC is the area under the same curve over the 256-fold range up to the top dose, as a fraction: 1 means no effect, lower means more sensitive. Where an entry number is given, a second screen of the drug exists; the two often differ.
# Compound: CS(=O)(=O)N1CCN(Cc2cc3nc(-c4cccc5[nH]ncc45)nc(N4CCOCC4)c3s2)CC1 [GDC0941]
# Assay: Viability of human cancer cell lines after 72 h of drug (GDSC screen)
# Details: screen: GDSC drug entry 1058
# Procedure: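 Human cancer cell lines in 384-well plates, medium with 10% serum, drug for 72 h over a 256-fold dose range (nine 2-fold or five 4-fold steps up to the top dose). Adherent lines were fixed and stained with the nucleic acid dye Syto60, suspension lines read with resazurin; signal relative to control wells, capped at 0 and 100%. One two-parameter sigmoid per drug and line, fitted in a mixed model over all curves with the slope shared within a line.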
Cell Line,AUC,IC50
"SW982 (soft tissue, adherent, top dose 4 µM)",0.844,2980 nM
"SW1271 (small cell lung carcinoma, adherent, top dose 4 µM)",0.892,> 4000 nM
"SW1417 (large intestine, adherent, top dose 4 µM)",0.962,> 4000 nM
"SW1710 (bladder, adherent, top dose 4 µM)",0.706,969 nM
"SW1783 (glioma, adherent, top dose 4 µM)",0.861,2860 nM
"Saos-2 (osteosarcoma, adherent, top dose 4 µM)",0.69,1080 nM
"SiHa (cervix, adherent, top dose 4 µM)",0.953,> 4000 nM
"T47D (breast, adherent, top dose 4 µM)",0.605,567 nM
"T84 (large intestine, adherent, top dose 4 µM)",0.989,> 4000 nM
"T98G (glioma, adherent, top dose 4 µM)",0.776,1470 nM
"T-T (oesophagus, adherent, top dose 4 µM)",0.72,1050 nM
"TC-71 (Ewing sarcoma, adherent, top dose 4 µM)",0.854,2370 nM
"TC-YIK (cervix, suspension, top dose 4 µM)",0.887,3420 nM
"TCCSUP (bladder, adherent, top dose 4 µM)",0.853,3860 nM
"TE-1 (oesophagus, adherent, top dose 4 µM)",0.862,> 4000 nM
"TE-4 (oesophagus, adherent, top dose 4 µM)",0.787,1730 nM
"TE-5 (oesophagus, adherent, top dose 4 µM)",0.916,> 4000 nM
"TE-6 (oesophagus, adherent, top dose 4 µM)",0.854,> 4000 nM
"TE-8 (oesophagus, adherent, top dose 4 µM)",0.827,2680 nM
"TE-9 (oesophagus, adherent, top dose 4 µM)",0.974,> 4000 nM
"TE-10 (oesophagus, adherent, top dose 4 µM)",0.953,> 4000 nM

Cell Line,AUC,IC50
"TE-11 (oesophagus, adherent, top dose 4 µM)",0.897,> 4000 nM
"TE-12 (oesophagus, suspension, top dose 4 µM)",0.67,828 nM
"TE-15 (oesophagus, suspension, top dose 4 µM)",0.621,563 nM
"TGBC1TKB (biliary tract, adherent, top dose 4 µM)",0.847,2920 nM
"TGBC11TKB (stomach, adherent, top dose 4 µM)",0.938,> 4000 nM
"TGW (neuroblastoma, adherent, top dose 4 µM)",0.753,1170 nM
"THP-1 (acute myeloid leukaemia, suspension, top dose 4 µM)",0.788,1560 nM
"TK10 (kidney, adherent, top dose 4 µM)",0.753,1590 nM
"TK (B-cell lymphoma, suspension, top dose 4 µM)",0.778,1480 nM
"TMK-1 (stomach, adherent, top dose 4 µM)",0.593,458 nM
"TOV-21G (ovary, adherent, top dose 4 µM)",0.83,2820 nM
"TOV-112D (ovary, adherent, top dose 4 µM)",0.813,2180 nM
"TT2609-C02 (thyroid, adherent, top dose 4 µM)",0.798,2050 nM
"TT (thyroid, adherent, top dose 2 µM)",0.98,> 2000 nM
"TUR (B-cell lymphoma, suspension, top dose 4 µM)",0.526,292 nM
"TYK-nu (ovary, adherent, top dose 4 µM)",0.76,1510 nM
"U031 (kidney, adherent, top dose 2 µM)",0.972,> 2000 nM
"U-118-MG (glioma, adherent, top dose 4 µM)",0.902,> 4000 nM
"U-698-M (B-cell leukaemia, suspension, top dose 4 µM)",0.821,2320 nM
"UACC-62 (melanoma, adherent, top dose 4 µM)",0.959,> 4000 nM
"UACC-257 (melanoma, adherent, top dose 4 µM)",0.973,> 4000 nM
